Measured values reported in article PMC6919601, “Identification of Plasmodium dipeptidyl aminopeptidase allosteric inhibitors by high throughput screening” (PLoS ONE, 2019).
Screen size: about 110,000 compounds; about 230 (0.21%) showed an effect of 50% or more. This is one part of the list.

Molecular target: DPAP1 (Plasmodium falciparum, UniProt Q8IIJ9)
Test: primary screen, percent inhibition; read by cleavage of a fluorogenic dipeptide substrate; higher = more effect of the substance
Set-up: species or system P. falciparum D10 trophozoite lysates; single well
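Note: 30 min substrate incubation versus DMSO and 10 µM JCP410 controls.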

Sequence of DPAP1 (Q8IIJ9 whole entry, looked up): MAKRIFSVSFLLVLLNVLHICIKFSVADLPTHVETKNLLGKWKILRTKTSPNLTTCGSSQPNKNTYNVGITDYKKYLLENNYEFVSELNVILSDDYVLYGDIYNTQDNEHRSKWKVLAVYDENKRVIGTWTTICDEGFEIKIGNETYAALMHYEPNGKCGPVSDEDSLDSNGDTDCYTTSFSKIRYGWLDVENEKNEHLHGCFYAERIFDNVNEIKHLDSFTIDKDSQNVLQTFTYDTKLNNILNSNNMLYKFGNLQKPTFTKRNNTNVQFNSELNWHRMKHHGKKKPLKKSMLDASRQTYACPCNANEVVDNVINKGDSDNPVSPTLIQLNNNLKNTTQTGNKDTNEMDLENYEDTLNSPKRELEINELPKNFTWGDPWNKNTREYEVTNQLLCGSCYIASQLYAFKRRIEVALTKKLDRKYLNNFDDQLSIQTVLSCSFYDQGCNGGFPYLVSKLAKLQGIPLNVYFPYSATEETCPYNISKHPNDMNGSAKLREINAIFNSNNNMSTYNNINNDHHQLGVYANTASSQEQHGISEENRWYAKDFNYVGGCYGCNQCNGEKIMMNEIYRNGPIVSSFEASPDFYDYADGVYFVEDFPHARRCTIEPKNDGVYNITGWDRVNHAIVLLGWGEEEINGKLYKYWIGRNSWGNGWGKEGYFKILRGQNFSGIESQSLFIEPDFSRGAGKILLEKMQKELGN

Structure (SMILES)	% Inhibition @ 10 uM [%]
COc1ccccc1NC(=O)C1=C(C)N=C2CCCC(O)=C2C1c1cccc(OC)c1OC (stereo not drawn)	0.726
NC(=O)C1CCN(Cc2ccccc2F)CC1	0.0792
Cc1ccc(SCC(=O)Nc2ccc(C)cc2C)cc1	-6.38
O=C1CCCc2c1nc(-c1cccc(F)c1)n2O	0.215
O=C(NC1CCCC1)NS(=O)(=O)c1ccccc1Cl	-4.61
O=c1cc(NCCc2ccccc2)c2ccccc2o1	-5.4
CN(c1ccc(C(=O)N2CCC(Cc3ccccc3)CC2)cc1)S(C)(=O)=O	-0.95
O=C(Nc1ccc(CN2CCOCC2)cc1)c1cc(Cl)ccc1Cl	-2.37
CC(C)N(Cc1nc(-c2ccc(Cl)cc2)no1)C(=O)C1CCCCC1	-0.646
CSC1=C(C#N)C(C)C2=C(O)CC(C)(C)CC2=N1 (stereo not drawn)	2.76
CC1CCN(S(=O)(=O)c2ccc(NC(=O)CCCc3ccccc3)cc2)CC1	-2.45
COc1ccc(-c2ccc3c(N)c(C(=O)Nc4cc(OC)c(OC)c(OC)c4)sc3n2)cc1	5.03
COc1ccc(CNC(=O)C2CCCN(c3nc4ccccc4o3)C2)c(OC)c1 (stereo not drawn)	0.387
CN(C(=O)CSc1nncn2c1cc1sccc12)C1CCCCC1	-10.9
COC(=O)c1cn(C(=O)c2ccc(Cl)cc2Cl)c2ccccc12	-2.65
CCOc1ccc(CCNCc2c(C(=O)O)n(C)c3cc(OC)ccc23)cc1OCC	-2.68
O=C1OC(/C=C/c2cccc(Cl)c2Cl)=NC/1=C/c1ccc2c(c1)OCO2	9.52
OC(COc1cccc(OCC(O)CN2CCCCC2)c1)CN1CCCCC1 (stereo not drawn)	-1.6
COc1ccc(-c2nc(N3CCOCC3)nc3nn4c(C)cc(C)nc4c23)cc1	-3.27
Cc1ccc(C(=O)C2=C(O)C(=O)NC2c2ccccc2)cc1 (stereo not drawn)	-5.27
CCOC(=O)C(O)(c1ccc(C2CC2C2CC2)o1)C(F)(F)F (stereo not drawn)	0.962

Structure (SMILES)	% Inhibition @ 10 uM [%]
CCOc1ccc2c(c1)c(C(C)=O)c(C)n2CCc1ccccc1	-3.28
CCOc1ccc(N2CN=C3SCC(=O)N3C2)cc1	-3.77
COC(=O)c1cccc(Oc2ccc([N+](=O)[O-])cc2)c1	4.42
CCc1c(O)n(C2CCCCC2)c(SCc2ccccc2)nc1=O	0.815
CSc1ccc(-c2nnn(CC(=O)NCc3ccccc3)n2)cc1	2.57
CN1C(=O)c2ccccc2C(C(=O)NCCc2ccc(Cl)cc2)C1c1cccs1 (stereo not drawn)	-2.4
COC(=O)c1ccc(OCC2c3cc(OC)c(OC)cc3CCN2C(=O)Cc2ccc(F)cc2)cc1 (stereo not drawn)	2.21
CN1C(C(=O)Nc2cnn(C34CC5CC(CC(C5)C3)C4)c2)=CC(c2ccco2)=NS1(=O)=O	3.92
Cc1ccc(NC(=O)CN2CC(c3ccccc3)CC2=O)cc1C (stereo not drawn)	-10.5
Clc1ccc(OCCCCn2ccnc2)cc1	-4.3
CC(C)C[C@H](NC(=O)OCc1ccccc1)C(=O)N[C@H](C#N)Cc1c[nH]c2ccccc12	1.71
CCc1ccc(CN2CCCC(C(=O)N3CCCCC3)C2)cc1 (stereo not drawn)	2.04
N#Cc1ccc(NC(=O)CS(=O)(=O)Cc2ccccc2)cc1	3.62
O=C1C2C3C=CC(C3)C2C(=O)N1c1ccc(N2C(=O)C3C4C=CC(C4)C3C2=O)c(Cl)c1 (stereo not drawn)	2.13
CCc1noc(C(=O)[C@H](CC)NC(=O)[C@H](CC2CCCC2)NC2=NS(=O)(=O)c3ccccc32)n1	-4.82
COC(=O)c1cc(S(=O)(=O)NCc2cccnc2)c[nH]1	0.867
CC(=O)c1ccc(N/C=C/C(=O)c2ccc(Br)cc2)cc1	-6.87
COc1ccc(Cl)cc1NC(=O)CC1S/C(=N\C2CCCCC2)N(C)C1=O (stereo not drawn)	-2.58
O=C(CCn1ccc2cc(S(=O)(=O)N3CCCC3)ccc21)NC1CCCCCC1	4.65
C=CC1CN2CCC1CC2c1[nH]c2ccccc2c1CCO (stereo not drawn)	-2.85
CCOC(=O)c1[nH]c(C)c(C(=O)c2cccs2)c1C	-6.07

Structure (SMILES)	% Inhibition @ 10 uM [%]
COC(=O)c1cc2ccsc2n1Cc1cccc(F)c1	-3.67
Cc1ccc2c(Cl)c(C(=O)NC3=NCCS3)sc2c1	0.726
CC(C)=CCC/C(C)=C/CN1CCN(c2ccccc2Cl)CC1	3.48
O=S(=O)(NCCc1nnc2ccc(SCc3cccnc3)nn12)c1ccccc1	-6.82
O=C(O)C1CSC(c2ccccc2Cl)N1C(=O)c1ccc(Cl)cc1 (stereo not drawn)	-1.16
Cc1nn(CC(=O)N2CCN(C(=O)c3ccco3)CC2)c(=O)c2cc3sccc3n12	0.137
O=C(NCCCN1CCOCC1)c1ccccc1Br	0.58
CC(C)CCNc1nc2c(c(=O)[nH]c(=O)n2C)n1CC(O)COC(C)C (stereo not drawn)	-8.72
O=C(NCCN1CCc2ccccc2C1)c1cc(-c2cccs2)nc2ccccc12	-6.54
CC1c2nc3ccccc3n2C(CC(=O)NCCc2ccc(Cl)cc2)C(=O)N1Cc1ccccc1 (stereo not drawn)	9.33
CCOc1ccc(CC(=O)Nc2cc(C)ccc2C)cc1OCC	1.27
O=C(NCc1cccnc1)c1ccc(Cl)cc1Cl	3.53
COC(=O)C1=C(C)N=C2SCCC(=O)N2C1c1ccc(Cl)cc1Cl (stereo not drawn)	-7.45
Cc1ccc2oc(=O)c3cnn(CC(=O)NCc4cccnc4)c3c2c1	-1.7
CC(=O)C(Cc1ccc(Cl)cc1)(Cc1ccc(Cl)cc1)C(C)=O	-3.94
CC(NC(=S)NC(=O)/C=C/c1ccc(F)cc1)C12CC3CC(CC(C3)C1)C2 (stereo not drawn)	-3.48
CCCC(=O)Nc1ccc(C(=O)Nc2ccc(Br)cc2F)cc1	-0.545
O=C(Nc1ccc2oc(-c3cccnc3)nc2c1)C(c1ccccc1)c1ccccc1	10.7
CC(=O)c1sc(N2C(=O)c3oc4ccccc4c(=O)c3C2c2ccccc2F)nc1C (stereo not drawn)	-0.828
CN(CC(=O)Nc1c2c(nc3c1CCC3)CCCC2)Cc1ccccc1	-2.65
O=C1CSc2ccc(C(=O)N3CCOCC3)cc2N1	-9.6
